Experimental data published in PMC8017232.
No constants are given. Whether binding was seen depends on the method and setting. Binding seen in cells or lysates may run through a third protein. Some results given as binding are weak or reduced against the parent protein; the word gives no strength. For part of these data: Where a sequence is shown, tags or fusion partners need not be part of it.

T1: Flag-MAVS (UniProt Q8VCF0)
T1 sequence: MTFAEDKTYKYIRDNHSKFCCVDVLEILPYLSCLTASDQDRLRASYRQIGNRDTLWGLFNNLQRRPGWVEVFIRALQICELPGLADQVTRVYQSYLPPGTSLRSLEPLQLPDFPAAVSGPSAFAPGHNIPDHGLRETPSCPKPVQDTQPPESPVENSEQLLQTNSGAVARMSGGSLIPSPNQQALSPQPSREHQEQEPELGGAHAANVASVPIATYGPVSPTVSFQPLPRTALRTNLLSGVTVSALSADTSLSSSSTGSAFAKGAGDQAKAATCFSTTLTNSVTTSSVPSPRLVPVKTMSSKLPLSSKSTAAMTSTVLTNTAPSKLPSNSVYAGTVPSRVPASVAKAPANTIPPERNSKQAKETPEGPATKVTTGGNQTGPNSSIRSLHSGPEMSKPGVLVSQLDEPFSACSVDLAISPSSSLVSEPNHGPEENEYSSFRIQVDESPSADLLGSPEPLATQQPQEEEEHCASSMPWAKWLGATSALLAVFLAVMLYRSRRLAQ

T2: Flag-TBK1 (UniProt Q9WUN2)
T2 sequence: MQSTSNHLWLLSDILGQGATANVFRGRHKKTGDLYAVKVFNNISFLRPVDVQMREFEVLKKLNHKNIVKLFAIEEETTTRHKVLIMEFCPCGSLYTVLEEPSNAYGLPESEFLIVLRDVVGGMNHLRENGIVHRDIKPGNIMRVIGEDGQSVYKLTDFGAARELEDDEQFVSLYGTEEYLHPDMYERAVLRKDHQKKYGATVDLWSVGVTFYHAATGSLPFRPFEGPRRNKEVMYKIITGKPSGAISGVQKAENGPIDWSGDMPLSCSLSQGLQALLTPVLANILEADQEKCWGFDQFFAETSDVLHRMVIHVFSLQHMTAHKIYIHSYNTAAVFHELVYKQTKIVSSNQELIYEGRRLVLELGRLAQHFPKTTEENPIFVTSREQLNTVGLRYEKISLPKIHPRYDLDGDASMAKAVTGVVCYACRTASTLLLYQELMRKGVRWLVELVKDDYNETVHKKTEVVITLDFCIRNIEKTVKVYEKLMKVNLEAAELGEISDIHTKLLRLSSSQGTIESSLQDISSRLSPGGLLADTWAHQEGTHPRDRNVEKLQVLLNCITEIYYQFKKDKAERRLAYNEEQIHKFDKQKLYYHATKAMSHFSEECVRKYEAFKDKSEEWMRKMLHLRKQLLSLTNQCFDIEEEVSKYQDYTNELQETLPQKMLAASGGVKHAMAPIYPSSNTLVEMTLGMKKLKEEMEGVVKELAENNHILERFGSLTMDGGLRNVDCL

T3: Flag-tagged RIG-I 2CARDs (1–233) (UniProt Q6Q899)
T3 sequence: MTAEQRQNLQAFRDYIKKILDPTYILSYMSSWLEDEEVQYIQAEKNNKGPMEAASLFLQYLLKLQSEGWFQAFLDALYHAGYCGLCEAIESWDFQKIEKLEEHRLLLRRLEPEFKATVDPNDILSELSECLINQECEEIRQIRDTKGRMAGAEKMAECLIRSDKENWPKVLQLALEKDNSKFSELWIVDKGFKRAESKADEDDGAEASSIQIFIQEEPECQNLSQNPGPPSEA

T4: Flag-tagged RIG-I CTD (735–926) (UniProt Q6Q899)
T4 sequence: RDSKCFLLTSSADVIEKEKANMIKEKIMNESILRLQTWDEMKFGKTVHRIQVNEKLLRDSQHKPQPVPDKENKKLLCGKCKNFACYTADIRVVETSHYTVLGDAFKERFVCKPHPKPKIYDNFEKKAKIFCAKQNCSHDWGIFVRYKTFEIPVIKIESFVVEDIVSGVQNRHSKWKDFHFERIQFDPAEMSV

T5: Flag-tagged full-length RIG-I (1–926) (UniProt Q6Q899)
T5 sequence: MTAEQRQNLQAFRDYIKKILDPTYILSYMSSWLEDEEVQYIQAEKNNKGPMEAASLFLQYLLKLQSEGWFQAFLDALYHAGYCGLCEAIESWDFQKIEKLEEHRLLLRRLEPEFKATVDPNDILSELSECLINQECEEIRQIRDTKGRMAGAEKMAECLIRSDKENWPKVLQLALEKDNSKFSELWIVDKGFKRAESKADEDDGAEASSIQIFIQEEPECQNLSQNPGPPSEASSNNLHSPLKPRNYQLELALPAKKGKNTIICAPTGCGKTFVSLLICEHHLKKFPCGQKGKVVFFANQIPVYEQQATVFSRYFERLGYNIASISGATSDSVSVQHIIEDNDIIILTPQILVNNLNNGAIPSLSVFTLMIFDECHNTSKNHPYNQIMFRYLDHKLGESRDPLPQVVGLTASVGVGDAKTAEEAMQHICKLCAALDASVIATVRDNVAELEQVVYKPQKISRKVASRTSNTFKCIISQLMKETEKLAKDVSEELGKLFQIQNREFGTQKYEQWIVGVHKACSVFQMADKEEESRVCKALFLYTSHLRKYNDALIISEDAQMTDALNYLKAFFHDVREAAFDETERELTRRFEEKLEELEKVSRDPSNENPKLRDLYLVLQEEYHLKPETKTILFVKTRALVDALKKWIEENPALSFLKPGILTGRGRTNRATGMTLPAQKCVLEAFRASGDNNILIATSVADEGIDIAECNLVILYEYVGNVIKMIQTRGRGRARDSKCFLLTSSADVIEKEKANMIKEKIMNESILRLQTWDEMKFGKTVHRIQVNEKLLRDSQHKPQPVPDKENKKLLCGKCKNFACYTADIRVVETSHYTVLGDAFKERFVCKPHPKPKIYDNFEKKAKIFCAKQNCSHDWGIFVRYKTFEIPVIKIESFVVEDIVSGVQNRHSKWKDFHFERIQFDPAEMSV

T6: RIG-I (endogenous) (mouse (endogenous in RAW264.7 and BMDMs)) (UniProt Q6Q899)
T6 sequence: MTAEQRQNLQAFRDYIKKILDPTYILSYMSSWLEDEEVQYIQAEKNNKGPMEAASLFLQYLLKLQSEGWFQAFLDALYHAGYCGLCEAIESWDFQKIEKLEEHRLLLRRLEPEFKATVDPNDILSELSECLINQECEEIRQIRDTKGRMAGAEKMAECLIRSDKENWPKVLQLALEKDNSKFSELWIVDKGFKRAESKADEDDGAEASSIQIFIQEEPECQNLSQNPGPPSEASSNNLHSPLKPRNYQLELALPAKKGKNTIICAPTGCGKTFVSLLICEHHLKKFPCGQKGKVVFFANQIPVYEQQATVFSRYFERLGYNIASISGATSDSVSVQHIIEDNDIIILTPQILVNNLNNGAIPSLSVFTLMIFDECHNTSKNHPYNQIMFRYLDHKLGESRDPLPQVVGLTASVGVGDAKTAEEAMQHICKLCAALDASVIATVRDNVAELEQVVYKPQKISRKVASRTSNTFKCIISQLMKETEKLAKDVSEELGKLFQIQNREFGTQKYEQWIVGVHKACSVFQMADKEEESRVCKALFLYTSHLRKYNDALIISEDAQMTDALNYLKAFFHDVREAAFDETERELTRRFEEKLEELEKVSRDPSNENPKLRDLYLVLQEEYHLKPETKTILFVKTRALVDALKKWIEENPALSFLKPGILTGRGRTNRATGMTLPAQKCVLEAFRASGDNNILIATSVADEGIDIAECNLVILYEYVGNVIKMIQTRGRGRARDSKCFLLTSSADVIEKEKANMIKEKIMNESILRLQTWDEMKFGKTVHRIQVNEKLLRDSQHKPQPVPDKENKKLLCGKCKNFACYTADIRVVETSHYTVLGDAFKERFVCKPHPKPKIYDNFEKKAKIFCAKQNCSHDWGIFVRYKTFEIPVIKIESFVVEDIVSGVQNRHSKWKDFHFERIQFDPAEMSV


Tests used:
[1] = target: T1, Flag-MAVS; assay: co-IP; HEK293T cells co-transfected with Myc-TIPE2 and a Flag-tagged protein for 24 h; whole cell lysate immunoprecipitated by the Flag tag (anti-Flag M2 beads in Figure 6E); immunoblot with anti-Flag or anti-Myc
[2] = target: T2, Flag-TBK1; assay: as above
[3] = target: T3, Flag-tagged RIG-I 2CARDs (1–233); assay: as above
[4] = target: T4, Flag-tagged RIG-I CTD (735–926); assay: as above
[5] = target: T5, Flag-tagged full-length RIG-I (1–926); assay: as above
[6] = target: T6, RIG-I (endogenous) (mouse (endogenous in RAW264.7 and BMDMs)); assay: co-IP

Row | Binder | binding [1] | binding [2] | binding [3] | binding [4] | binding [5] | binding [6]
1 | Myc-TIPE2 (tumor necrosis factor-α-induced protein 8-like 2) (protein, UniProt Q9D8Y7 1-184) MESFSSKSLALQAEKKLLSKMAGRSVAHLFIDETSSEVLDELYRVSKEYTHSRPKAQRVIKDLIKVAVKVAVLHRSGCFGPGELALATRFRQKLRQGAMTALSFGEVDFTFEAAVLAGLLVECRDILLELVEHHLTPKSHDRIRHVFDHYSDPDLLAALYGPDFTQHLGKICDGLRKLLDEGKL | no binding | no binding | binds | binds | binds | 
2 | TIPE2 (endogenous) (protein, UniProt Q9D8Y7 1-184) MESFSSKSLALQAEKKLLSKMAGRSVAHLFIDETSSEVLDELYRVSKEYTHSRPKAQRVIKDLIKVAVKVAVLHRSGCFGPGELALATRFRQKLRQGAMTALSFGEVDFTFEAAVLAGLLVECRDILLELVEHHLTPKSHDRIRHVFDHYSDPDLLAALYGPDFTQHLGKICDGLRKLLDEGKL |  |  |  |  |  | binds
